Hit rate of the full screen: of about 44,000 compounds, about 340 (0.77%) were called active. About 5% were inconclusive and are not listed. Calls come from the whole dose curve; as a rule, active = well fitted inhibition curve with a large enough effect; inconclusive = small, poorly fitted or top-dose-only effect; inactive = flat fitted curve, though single readings scatter. Some of the results follow.
test: Acumen qHTS Assay for Inhibitors of the mTORC1 Signaling Pathway in MEF (Tsc2-/-, p53-/-) Cells: Sytravon; conditions: phospho-rpS6 immunofluorescence/PI, 24 h; series mostly up to 38.3 µM; activity change, negative = inhibition: at the top concentration;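 note: plate controls were DMSO for no effect and rapamycin for full effect; nearly all actives have a fitted effect of over 50% in size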
Outline: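 Plate MEFs (Tsc2-/-, p53-/-, empty vector) in DMEM/10% FBS; after 24 h add compound, incubate 24 h at 37 degree Celsius; fix in PFA/TX-100, block, stain phospho-rpS6 and 10 uM PI; scan at 488 nm; report % positive cells.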

| SMILES | activity change, negative = inhibition |
| --- | --- |
| COc1cc(C(=O)Nc2ccc(OCc3cc(=O)n4cccc(C)c4n3)cc2)cc(OC)c1OC | inactive: -21% |
| O=C(NCCc1ccccc1)c1ccc(CSc2nc3ccncc3n2Cc2cccc(F)c2)cc1 | inactive: -4.19% |
| CCN(CC)C(=O)c1sc2c(c1C)c(=O)n(CCc1ccccc1)c(=O)n2Cc1cccc(Cl)c1 | inactive: -0.315% |
| COc1ccc(-n2nc(C(=O)NCc3ccc(F)cc3)c3c4ccccc4n(C)c3c2=O)cc1 | inactive: 3.57% |
| O=C(c1cnc(N2CCOCC2)c2ccccc12)N1CCN(c2ccccc2F)CC1 | inactive: -18.9% |
| CN(C)c1ccc(CNC(=O)c2ccc3c(c2)N(C)C(=O)C2CCCCN32)cc1 (centres undefined) | inactive: 0.0904% |
| CCOc1ccccc1N1CC(c2nc3ccccc3n2CCCCOc2cc(C)ccc2C)CC1=O (centres undefined) | inactive: -10.6% |
| COc1cc(NC(=O)CSc2ccc(-c3sc(-c4ccccc4)nc3C)nn2)cc(OC)c1 | inactive: -5.94% |
| CCCc1cc(=O)[nH]c2nnc(SCCC(C)C)n12 | inactive: -1.01% |
| COC(=O)c1c(NC(=O)COc2ccc(OC)cc2)sc2c1CCC(C)C2 (centres undefined) | inactive: 3.87% |
| Cc1cc(C)cc(OCCSc2nc(-c3ccc(C(C)(C)C)cc3)nc3cc(=O)[nH]n23)c1 | inactive: 0.0619% |
| CC(C)Oc1ccc(CNC(=O)C2CCCN(S(=O)(=O)c3ccc4c(ccn4C)c3)C2)cc1 (centres undefined) | inactive: -3.7% |
| CCCn1cc(S(=O)(=O)c2ccc(OC)cc2)c(=O)c2cc(F)c(N3CCCCCC3)cc21 | inactive: 1.44% |
| CCn1cc(S(=O)(=O)c2ccc(C)cc2C)c(=O)c2cc(F)c(N3CCCC3)cc21 | inactive: -7.63% |
| Cc1ccc(CSc2nnc3[nH]c(=O)cc(C)n23)cc1 | inactive: -5.26% |
| COc1ccc(CN2CCN(S(=O)(=O)c3ccccc3)CC2)c(OC)c1 | inactive: -5.2% |
| CCCN1C(=O)C2(c3ccccc31)c1c(oc3cc(C)c(C)cc3c1=O)C(=O)N2CCCOC (centres undefined) | inactive: -2.46% |
| CCC(=O)N1c2ccccc2CC1C(=O)NCCc1ccc(OC)cc1OC (centres undefined) | inactive: 0% |
| COc1ccc(OC)c(NC(=O)[C@H](Cc2ccccc2)N2Cc3ccccc3C2=O)c1 | inactive: 0.856% |
| Cc1c(C(=O)Nc2cccc(C(F)(F)F)c2)oc2ccc(S(=O)(=O)N(C)C3CCCCC3)cc12 | inactive: 8.66% |
| O=C(CC1C(=O)N(c2ccccc2)C(=O)N1CCc1cccs1)Nc1ccc(Cl)cc1 (centres undefined) | inactive: 2.12% |
| CCNC(=O)c1ccc(-n2c(-c3ccccc3)cc3c2CCCCC3)cc1 | inactive: -2% |
| COc1cccc(CNC(=O)CCc2c(C)nn(-c3ccc(N4CCOCC4)nn3)c2C)c1 | inactive: -0.541% |
| CCOC(=O)CNc1ncnc2c1nnn2C | inactive: 0.234% |

| SMILES | activity change, negative = inhibition |
| --- | --- |
| CC(=O)Nc1nonc1-c1nnc(SCc2ccc(C)cc2)n1C | inactive: -19.1% |
| CCCNC(=O)c1c2c(nc3ccccc13)C(=O)N(C1CCCCC1)C2 | inactive: -10.2% |
| Cc1cccn2c(=O)c(/C=C(\C#N)c3nc4ccccc4n3C)c(Oc3ccc(Cl)cc3)nc12 | inactive: 4.67% |
| CCCc1cc(=O)[nH]c2nnc(SCC(=O)Nc3cccc(C)c3)n12 | inactive: 1.28% |
| COc1ccc(OC)c(NC(=O)c2nc(SCc3ccccc3F)ncc2Cl)c1 | inactive: 2.18% |
| COc1cccc(NC(=O)C2CCCN2S(=O)(=O)c2ccc3c(c2)n(C)c(=O)c(=O)n3C)c1 (centres undefined) | inactive: 8.85% |
| O=C(Cn1c(=O)oc2cc(S(=O)(=O)NCc3ccccc3)ccc21)N(CCO)Cc1ccccc1 | inactive: 0.654% |
| CCc1cccc(-n2c(=O)c3cccnc3n2CC(=O)Nc2ccccc2C(=O)OC)c1 | inactive: 2.2% |
| CCC1CN(C(=O)Nc2cc(OC)cc(OC)c2)c2ccccc2S1 (centres undefined) | inactive: -0.633% |
| CCOc1ccc(NC(=O)c2ccc3nc(Cc4ccccc4)oc3c2)cc1 | inactive: -0.0481% |
| Cc1ccc2oc(C(=O)Nc3sc4c(c3C(=O)NCc3ccccc3)CCCC4)cc(=O)c2c1 | inactive: 4.77% |
| Cc1ccc(OCC(=O)OCc2cc(=O)n3c(C)csc3n2)cc1 | inactive: 0.0722% |
| Cc1ccccc1NC(=O)N1CCC(CN2CCCC2)CC1 | inactive: -6.51% |
| COc1ccc(-n2nc3cc(C)c(NC(=O)c4ccc(C)cc4C)cc3n2)cc1Cl | inactive: 3.15% |
| N#CC1=C2SCN(C3CCCCC3)CN2C(=O)CC1c1ccc(F)cc1 (centres undefined) | inactive: -13.8% |
| Cc1ccc(-c2c(C)n3c4c(=O)n(C)c(=O)n(C)c4nc3n2CCCO)cc1 | inactive: -4.55% |
| O=C(CCn1cnnn1)Nc1ccccc1 | inactive: -4.59% |
| O=C(CSc1nc2c([nH]c3ccccc32)c(=O)n1-c1ccccc1)Nc1ccccc1F | inactive: -13.7% |
| CCOC(=O)c1ccccc1NC(=O)Cn1c(=O)n(Cc2ccc(C(=O)NCc3ccc4c(c3)OCO4)cc2)c(=O)c2ccccc21 | inactive: -0.447% |
| COc1ccc(C(=O)Nc2cccc(-c3nc4cccnc4s3)c2C)c(OC)c1 | inactive: -15.5% |
| CC(=O)N1c2c(cc(Br)cc2S(=O)(=O)Nc2ccccc2C)CC1C (centres undefined) | inactive: -1.33% |
| Cc1cccc(C(=O)NC(=O)Nc2ccc(-n3nc(C(F)(F)F)cc3C(F)(F)F)cc2)c1 | inactive: -3.83% |
| Cc1c2cnn(CC(=O)NCc3ccc(F)cc3)c(=O)c2c(C)n1Cc1ccccc1Cl | inactive: -6.99% |
| COc1ccc(-c2nc(C)c(CCNC(=O)c3ccccc3Br)s2)cc1OC | inactive: -1.03% |

| SMILES | activity change, negative = inhibition |
| --- | --- |
| COc1cccc(Cn2cnc3c2c(=O)n(C)c(=O)n3C)c1 | inactive: -1.03% |
| O=C(Nc1cccc(C(F)(F)F)c1)c1ccc(F)c(S(=O)(=O)N2CCc3ccccc3C2)c1 | inactive: 3.11% |
| COCCCNC(=O)C1CCN(c2ncnc3c2nc2n3CCCCC2)CC1 | inactive: 5.33% |
| CCOc1cc(Br)c(C2C(C(=O)OC)=C(C)NC3=C2C(=O)c2ccccc23)cc1OCC (centres undefined) | inactive: -6.7% |
| CC(=O)N1CCCc2cc(S(=O)(=O)N3CCC(N(C)C(C)C)CC3)ccc21 | inactive: 0.293% |
| Cc1nc2c(C(=O)NCCC(C)C)cnn2c(C)c1Cc1c(F)cccc1Cl | inactive: 1.99% |
| COc1ccc2c(c1)c1c(c(=O)n(-c3ccc(C)cc3)c(=O)n1CC(=O)Nc1cc(C)ccc1C)n2C | inactive: -11.2% |
| CCC(C)NC(=O)C1CCN(S(=O)(=O)c2ccc3c(ccn3CC)c2)CC1 (centres undefined) | inactive: 1.22% |
| COc1cccc2sc(N(Cc3cccnc3)C(=O)c3ccc(S(=O)(=O)N(C)C)cc3)nc12 | inactive: -0.117% |
| O=C(O)c1ccccc1NC(=O)N1c2ccccc2Sc2ccccc21 | inactive: 9.11% |
| CCOC(=O)C1CCCN(C(=O)C2CCN(S(=O)(=O)c3c(C)noc3/C=C/c3ccc(C)cc3)CC2)C1 (centres undefined) | inactive: -2.5% |
| COc1ccccc1CNC(=O)c1cc2cc(S(=O)(=O)N3CCCCC3)ccc2n1C | inactive: -1.98% |
| CC1CCCN(Cc2c(O)ccc3c(=O)c(-c4ccc(Cl)cc4)c(C(F)(F)F)oc23)C1 (centres undefined) | inactive: -0.0856% |
| COc1cc2c(cc1OC)C(c1cc(OC)c(O)c(OC)c1)CC(=O)N2 (centres undefined) | inactive: 14.9% |
| Cc1cc(C)cc(N2C(=O)CS(=O)(=O)C23C(=O)N(Cc2ccccc2)c2ccccc23)c1 (centres undefined) | inactive: -8.51% |
| Cc1cc(OCC(=O)Nc2ncn[nH]2)c(C)c(C)c1Br | inactive: -2.06% |
| COc1ccc(-c2cc(C(F)(F)F)nc(SCC(=O)Nc3ccc(C(C)=O)cc3)n2)cc1 | inactive: -4.45% |
| COc1nnc(-c2ccc(N3CCCCC3)c(NC(=O)c3ccc(Cl)cc3)c2)c2ccccc12 | inactive: -0.176% |
| CCc1cc(=O)[nH]c(SCc2nc(-c3ccccc3C)no2)n1 | inactive: -17.8% |
| CCOC(=O)C1CCN(c2ncnc3c2c(-c2ccccc2)cn3-c2ccc(C)c(Cl)c2)CC1 | inactive: 11.7% |
| COc1ccc(OC)c(NC(=O)c2nc(SCc3ccc(F)cc3)ncc2Cl)c1 | inactive: 1.45% |
| O=C(NCCc1csc(-c2ccc(F)cc2)n1)C(=O)Nc1ccc(Cl)cc1 | inactive: -7.68% |
| CCC(=O)N1c2ccc(S(=O)(=O)NCCc3ccccc3)cc2CC1C (centres undefined) | inactive: -4.54% |
| O=C(/C=C/c1cn(CC(O)CN2CCc3ccccc32)c2ccccc12)c1ccc(Br)cc1 (centres undefined) | inactive: -17.5% |

| SMILES | activity change, negative = inhibition |
| --- | --- |
| COC(=O)c1ccccc1NC(=O)N(Cc1ccc(C)cc1)Cc1cccn1-c1nnc(N2CCCC2=O)s1 | inactive: -0.0801% |
| CCOC(=O)c1[nH]c(C)c(CCC(=O)NCc2ccc(OC(C)C)cc2)c1C | inactive: -1.64% |
| COc1ccc(C)cc1NC(=O)C1CCN(S(=O)(=O)c2cccc3nonc23)CC1 | inactive: -20.1% |
| Cc1ccc(CNS(=O)(=O)c2c(C(=O)N3CCC(C)CC3)c(C)n(C)c2C)cc1 | inactive: 3.61% |
| Cc1cc(Nc2cccc(O)c2)c2cccc(Br)c2n1 | inactive: -0.81% |
| Cc1sc2ncn(CC(=O)Nc3ccc(C(F)(F)F)cc3)c(=O)c2c1S(=O)(=O)N1CCN(C)CC1 | inactive: -3.06% |
| Cc1cccc(NC(=O)CSc2nnc3c4ccccc4n(C)c3n2)c1 | inactive: -1.96% |
| CCc1ccc(S(=O)(=O)c2cn(CC(=O)Nc3cccc(C)c3)c3ccc(Cl)cc3c2=O)cc1 | inactive: 1.38% |
| Cc1cc(/C=C(\C#N)C(=O)Nc2ccccc2)c(C)n1-c1ccc(F)cc1 | inactive: 0.374% |
| COC(=O)c1ccccc1NC(=O)c1sc2nc(C)cc(C)c2c1NC(=O)c1ccccc1Cl | inactive: -11.6% |
| COc1ccc(NC(=O)c2cc(C(C)=O)n3ccccc23)cc1Cl | inactive: -4.54% |
| COc1ccc2c(CNCc3cccs3)c(C(=O)O)n(Cc3cccc(F)c3)c2c1 | inactive: -8.33% |
| COc1ccc(NC(=O)c2ncoc2-c2ccco2)cc1Cl | inactive: 0% |
| CCOC(=O)c1cccc(NC(=O)C2CCN(S(=O)(=O)c3c(C)noc3/C=C/c3ccc(C)cc3)CC2)c1 | inactive: -4.88% |
| O=C(Cc1ccccc1)Nc1sc2c(c1C(=O)Nc1ccccc1Cl)CCCC2 | inactive: 8.27% |
| COc1cc(NC(=O)c2nc(-c3ccc(Cl)cc3)n3c2CCCCC3)cc(OC)c1OC | inactive: -5.88% |
| Cc1cccc(C(=O)Nc2ccc3nc(SCC(=O)N4CCc5ccccc54)sc3c2)c1 | inactive: -9.14% |
| COc1ccc(OC)c(-c2nnc3n(CCc4ccccc4)c(=O)c4ccccc4n23)c1 | inactive: -0.238% |
| COc1ccc(CNC(=O)Cn2ccc3cc(S(=O)(=O)N4CCCC4)ccc32)c(OC)c1 | inactive: 0.978% |
| CCn1c(=O)n(-c2ccc3c(c2)OCO3)c2nc(-c3cc(OC)ccc3OC)nc(C(N)=O)c21 | inactive: -8.17% |
| COc1ccc(CNC(=O)c2cc(C3CC3)nc3c2c(C)nn3-c2cccc(Cl)c2C)cc1 | inactive: 3.21% |
| COc1ccc(CNC(=O)c2ccc(NC(=O)N3CCSc4ncccc43)cc2)c(OC)c1 | inactive: -6.2% |

Reference: PubChem BioAssay AID493208 (National Center for Advancing Translational Sciences (NCATS), 2011)
